From patent US12551573B2, “Compositions and methods for the targeting of PCSK9” (Scribe Therapeutics Inc., priority 2022, dated 2026)

System: HBEGF locus
Assay type: cell-based, human
Conditions: high-throughput screen of dXR repression of the HBEGF gene; abundance of each domain in the library before and after diphtheria toxin selection; HEK293T cells

Row | Molecule | Log2 (fold change)
1 | DOMAIN_15447 (protein, listed as Rhinopithecus roxellana) YQTPVSFKDVVVGFTQEEWHRLSPAQRALYRDVMLETYSNLVSVGYEGTKPDVILRLEQEEAPWIGGAARPGCHCWEDIWQ | 3.1112
2 | DOMAIN_15753 (protein, Ovis aries) PRESVTFEDVAVNFSHEEWQCLTHSQRHLYKDVMLENYGNMVSLGFSFSKPPLISCLEQGAESYVQDQQDWEFLSCSYPVS | 3.1699
3 | DOMAIN_15419 (protein, listed as Rhinopithecus roxellana) LKGLVTFEDVAVEFTQEEWALLDPAQRTLYRDVMLENFRNLASLGNQVDKPGLISQLEQEDKVMTEERGIFPGACPDVENP | 2.6943
4 | DOMAIN_15931 (protein, Ovis aries) HQEVVTFEDVAVYFTQTEWAGLSPAQRALYRSVMLEIYGNLTSLGYPVPKPELVSLLERGDLPVGLETQDNPPAQGTRDIY | 3.0861
5 | DOMAIN_15603 (protein, Cebus imitator) EPGAVSFGDVAVYFSREEWGCLRPAQRALYRDVMRETYSHLGALGVGGSKPALISWMEEEAELWVPAAQDPEVAKCPTEAD | 3.5111
6 | DOMAIN_16011 (protein, Delphinapterus leucas) PQVLVSFEEVAVLLSQEEWGHLGPAQKRLYRDVMLETYGNLVSLGLQGSKPDVISKLEQGEEPWAPHSPRIEGSWIWRRRR | 4.3363
7 | DOMAIN_16017 (protein, Ovis aries) PLTFEDVALYFSEEEWLIMDPNQRTLYLDVMQELYENVTSLGLKLKNDTGNDPPVSLPTLEIQPSGCEVVRKATMKDAETT | 2.6715
8 | DOMAIN_15586 (protein, listed as Callorhinus ursinus) IQEPVTFKDVAVDFTQEEWGRLDPVQRTLYRDVMLETYRHLLSVGNQIAKPEVISLLEQGEEPWSVEQAYPQSTCPAVDTE | 2.6157
9 | DOMAIN_15360 (protein, listed as Neophocaena asiaeorientalis) QAEVTFEDVAVLLSREEWGRLGPVQKGLYRDVMLETYRNLVSLGGGPAGPKPEVITQLERGDEPWVPDVQGRERLTIDGSA | 3.2575
10 | DOMAIN_15527 (protein, listed as Balaenoptera acutorostrata) QAEVTFEDVAVLLSREEWGRLGPVQKGLYRDVMLETYRNLVSLGAGPTGPKPEVITQLERGDEPWVLDVQGREGPTIDGSA | 3.0354
11 | DOMAIN_15634 (protein, Delphinapterus leucas) QAEVTFEDVAVLLSREEWGRLGPVQKGLYRDVMLETYRNLVSLGAGPAGPKPEVITQLERGDEPWVPDVQGRERPNIDGSA | 3.3574
12 | DOMAIN_15636 (protein, Pan troglodytes) SLGSVTFTDVAIDFSQDEWEWLNLAQRSLYKKVMLENYRNLVSVGLCISKPVVISLLEQEKDPWVIKGGMNRGLCPDLECV | 2.2086
13 | DOMAIN_15823 (protein, Ovis aries) TSQSPLTFGDVAVEFSGEEWAWLDSAQRSLHRSVMLENYRNLASLGKVSKPEMISSLEQRKEPWAVTRKTTGGECADSQTL | 2.8458
14 | DOMAIN_15354 (protein, listed as Tursiops truncatus) PQKSVTFEDVAVYFTQTEWDGLSPAQRALYRDVMLENYGNVASLGFPLLKPTVISQLEGGGELEGPSPLASGTGTGPQGLW | 3.5099
15 | DOMAIN_15391 (protein, listed as Leptonychotes weddellii) PQKSVTFEDVAVYFTQTEWDGLSPAQRALYRDVMLENYGNVASLGFSLLKPAVISQLEGAGELGGPSPLVDGTETGPQGLW | 3.9053
16 | DOMAIN_15693 (protein, listed as Macaca mulatta) PQGLVTFGDVAVDFSQEEWEWLNPNQRTLYRKVMLENYKNLASLGLCVSKPDVISSLEQGKEPWTVKRKMTRAWCPDLKIV | 3.8571

Row | Molecule | Log2 (fold change)
17 | DOMAIN_15575 (protein, listed as Callithrix jacchus) IQGLLTFGDVAVAFTRIEWRHLDAAQRALYRDVMLENYGNLVSVGLLSSKPKLIAQLEQGAEPWMEVREAPSGTRAVPDYW | 2.594
18 | DOMAIN_15814 (protein, listed as Macaca mulatta) SHELLTFKDISVDFTQEEWGQLAPAYQNLYREVMLENYSNLVSVAGYQLSKPSVISQLEKGEEPWMAEKEGPGDPSSDLKS | 3.9503
19 | DOMAIN_15605 (protein, Cebus imitator) ESVAFEDVAVYFTQNQWGSLDPAQRALYREVMLENYANVASLVAFPFPKPALISHLEKGEAPWGPDPWDAEIPSGISQGGE | 3.8196
20 | DOMAIN_15834 (protein, listed as Otolemur garnettii) SQGLVTFGDVAVDFSQEEWAWLSTTQRTLYRKVTLENYRNLASLGLCVSKPAVISLLEQGKEPWIVKRKMTRGGCPDLNAV | 3.7629
21 | DOMAIN_15940 (protein, listed as Enhydra lutris) FEELVTFEDVAVYFSENEWTSLAPTQRVLYRDVMLENYGAVASLAAFPFPKPALISQLERGEAPWCKAPQGALDGEGPRGI | 2.8684
22 | DOMAIN_15278 (protein, listed as Callithrix jacchus) RPRALKFVDVAVYFSSEEWGCLRPAQRALYRDVMRETYGHLGALGFPGPKPALISWMEQESEAWSSAAQDPENGESLGGAR | 3.2523
23 | DOMAIN_15352 (protein, Cebus imitator) KPGAVSFADVAVYFSPEEWGCLRPAQRSLYRDVMRETYGHLGALGFPGPKPALISWMEQESEAWSSAAQDPEKGESLGGAQ | 3.0832
24 | DOMAIN_15699 (protein, listed as Bos taurus) SQGRLTFQDVAIDFTQEEWECLDLGQRELYRDVMLENYGNLASLGLVISKPDLVTFLEQMKDPWDTRRMETPAVHPAVSSH | 3.5255
25 | DOMAIN_15254 (protein, listed as Callithrix jacchus) PQESVAFDDVAVYFTKKEWAIMVPDQRALYRDVMLENYEAVAFVVPPTSKPALISHLEQGKEPCFTQPQGVLSRRDWRAGF | 3.5159
26 | DOMAIN_16009 (protein, listed as Zalophus californianus) AYGSLSFGEVAISFSQEEWECLDPAQRALYRDVMLETYSNLVSLAGSSISKPDVITLLEQEKEPWVVVRRETSRWYPDLES | 3.2738
27 | DOMAIN_15363 (protein, listed as Pongo sp.) SKAPVTFGDLAIYFSQEEWEWLSPIQKDLYEDVMLENYRNLVSLGLSFRRPNVITLLEKGKAPWMVEPVRRRRAPDSGSKC | 4.3121
28 | DOMAIN_15577 (protein, listed as Callithrix jacchus) FQELVTFRDVAIDFSGQEWEYLDPHQRDLYRDVMLENYRNLVSLGHSISKPVLVDLLEQGKEPWMILREETQFPGKEDRGH | 2.4456
29 | DOMAIN_15759 (protein, Ovis aries) QAEVTFEDVAVFLSQEEWGLLGPAQKGLYREVMLETYRNLVSLGAGLAGPKPEVIVHLERGDELWVLDMRGAEQPSVDGSA | 3.1884
30 | DOMAIN_15687 (protein, Cebus imitator) SQGHVTFEDIAVYFSQEEWGLLDEAQRCLYHDVMLENFSLMTSVAGLSQNNHKDSCLQWKVPVSMNNVAQCSPDEVHYTPM | 2.5362
31 | DOMAIN_15267 (protein, Ovis aries) SQVSVTFEDVAVLFTRDEWRKLAPPQRNLYQDVMLENYSNLVSLGLLFPKPKVISLLQQGEDPWKVEKENLGGSSLGWKNS | 2.8528

Same assay, conditions: high-throughput screen of dXR repression of the HBEGF gene; change in abundance of each domain in the library before and after diphtheria toxin selection

Row | Molecule | Log2 (fold change)
32 | DOMAIN_24663 (protein, listed as Myotis brandtii) SLALVTFKDVLVNFTREEWKLLDAAQQVMYRDVMLENYRNLVSLGHRLPKPDVILQLEKGEEPWLVERGTHQDAHPDWDTA | 2.9806
33 | DOMAIN_24458 (protein, listed as Lynx pardinus) FQGSLSFEDVTVGFSQEEWQHLDPAQRTLYRDVMLENYSHLVAVGCCVPKPDVIFRLEQGQQPWLVEEESLDQIWPEVCRV | 3.4012
34 | DOMAIN_23723 (protein, listed as Carlito syrichta) SQGLLTFKDVAIEFSPEEWEYLDPPQRMLYRTVMLENHRNLVFLGLAVSKPDLIMCLEQRREPWNVKSHSKLAKSPAVTSH | 3.5301
35 | DOMAIN_25289 (protein, listed as Ursus maritimus) LQRLLTFGDVAIEFSQEEWRCLSHTQRELYRDVMLENYRHLLFLGLIVSKPDLVSLLEQRKEPWDVKRKKTVVFDPGRWE | 3.4113
